# In PubChem BioAssay AID686971 (National Center for Advancing Translational Sciences (NCATS), 2013):
# Out of some 360,000 compounds screened, about 7,500 (2.1%) were called active. The shares of active, inactive and inconclusive entries below differ from those in the screen. Calls follow the shape of the dose curve; as a rule, active = well fitted cell-killing curve with a large enough effect; inconclusive = small, poorly fitted or top-dose-only effect, or effect the other way, or another doubt; inactive = no such curve, though single readings can be large or run the other way. Potencies of inconclusive entries are left out as doubtful fits.
# Assay: qHTS for induction of synthetic lethality in tumor cells producing 2HG: qHTS for the HT-1080-IDH1KD cell line
# Conditions: HT-1080 IDH1 knockdown viability, ATP luminescence, 48 h; activity, negative = toxicity: at 46.1 µM (top of the series) unless noted
# Source text: Unbiased genomic sequencing for 22 glioma genomes found recurrent mutation of IDH1 on chromosome 2q33, a gene encoding the cytosolic isoform of IIDH1 associated with the tri-carboxylic acid cycle (TCA) that catalyzes the oxidative decarboxylation of isocitrate, yielding alpha-ketoglutarate and CO2 via NADP+ to NADPH conversion. Subsequent studies confirmed the recurrent IDH mutations in up to 70% of secondary gliomas and in 10% of AML cases. In addition, the somatic mutation of cancer-associated IDH1 is a point mutation resulting in various amino-acid substituents at Arginine132 (IDH1 R132), a key residue found in the enzyme's active site that when mutated, results in the loss-of-function in metabolizing isocitrate but confers a gain-of-function to produce the oncometabolite 2-hydroxyglutarate (2HG). This in effect defines IDH1 as an oncogene and provides an extraordinary opportunity to discover chemical probes against mutant IDH1 that may translate into much needed new therapies for glioma and AML patients.
# This assay aims to perform a synthetic-lethal screen for chemical probes specific for 2HG-producing tumor cells using matched paired cell lines (1) HT-1080-NT fibrosarcoma cell line that overproduces 2HG and (2) HT-1080-IDH1KD cell line which has IDH1 expression knocked-down. Desirable compounds are toxic to the NT fibrosarcoma cell line but not to the IDH1KD cell line. The data in this AID corresponds to the results of the qHTS against the HT-1080 IDH1KD cell line.
# [1] Dang L, Jin S, Su SM. IDH mutations in glioma and acute myeloid leukemia. Trends of Mol Med. 2010; 16(9): 387-97.
# [2] Dang L et al. Cancer-associated IDH1 mutations produce 2-hydroxyglutarate. Nature. 2010; 465(7300):966.
# Molecular Libraries Probe Production Centers Network [MLPCN]
# NIH Chemical Genomics Center [NCGC]
# Assay Submitter (PI): Lenny Dang Ph.D., Agios Pharmaceuticals
# Suspensions of trypsinized HT-1080-IDH1KD cells were dispensed into white, tissue culture-treated, solid 1536-well plates at 5uL/well (750 cells/well final concentration) in RPMI medium supplemented with 5% FBS. Plates were incubated at 37 degrees C for 2 hours, after which 23 nL of compounds or DMSO were delivered to each well using a pin tool. Plates were then incubated at 37 degrees C for an additional 48 hours. CellTiter-Glo viability reagent (Promega) was dispensed into wells (2.5uL/well) and incubated at room temperature for 10 minutes. The plates were measured on a PerkinElmer ViewLux plate reader for luminescent signal (clear filter, 1 sec exp.). DMSO-treated control wells and media-only (no cells) control wells were used to normalize %Activity of identified toxic compounds; DMSO-treated wells corresponded to 0%Activity (100% viability), while media-only controls were used to normalize 100%Activity (0% viability). To minimize variability between cell lines, both HT-1080-NT and HT-1080-IDH1KD lines were dispensed and treated with identical compound series in single batches.
# Concentration-response curves were fitted to the signals arising from the resulting luminescence. The concentration-effect curves were then classified based on curve quality (r2), response magnitude and degree of measured activity, and compounds were subsequently categorized based on their curve class.
# Potency is read from the fitted curve at half-maximal effect; tags tell the direction and shape of the fitted curve.
SMILES,Potency,"activity, negative = toxicity"
CCCc1cc(=O)[nH]c(SCC(=O)Nc2cc(S(=O)(=O)N3CCCCC3)ccc2Cl)n1,active: 14.6 µM,
O=[N+]([O-])c1ccc(N/N=C/c2cccc(O)c2O)cc1,,inconclusive: -33.2% [cytotoxic]
Oc1ccc(/C=N/Nc2nc(-c3ccccc3F)nc3ccccc23)c(O)c1,active: 11.6 µM,
c1ccc(Cc2nnc3sc(-c4ccccn4)nn23)cc1,,inactive: -0.856%
O=C(CCc1ccccc1)N=C1SC2CS(=O)(=O)CC2N1c1cccc(F)c1 (centres undefined),,inactive: -2.21%
O=C(Oc1c(-c2ccccc2)c(=O)n2c3c(cccc13)CC2)c1ccccc1,"inconclusive [cytotoxic, single point]",
COc1ccc(/C=N/NC(=O)c2c(Br)cnn2C)c2ccccc12,,inactive: 1.72%
O=C1/C(=C/c2ccc(N3CCOCC3)o2)SC(=Nc2ccccc2)N1CCc1c[nH]c2ccccc12,active: 4.11 µM,
Cc1ccc(-c2cc(C(F)F)nc(S(C)(=O)=O)n2)cc1,active: 20.6 µM,
O=C1CC(c2cccc(Cl)c2)c2cc3c(cc2N1)CCC3 (centres undefined),"inconclusive [cytotoxic, partial curve]",
COc1ccc(/C=N/NC(=O)CNC(=O)c2cccs2)cc1,"inconclusive [rising, single point]",
CCCCCCCC(=O)N/N=C(\C)c1ccc(O)cc1O,"inconclusive [cytotoxic, single point]",
CCOC(=O)C1=CCN(S(=O)(=O)c2ccccc2Br)C1c1ccc(C)cc1 (centres undefined),"inconclusive [cytotoxic, single point]",
CCCCCCc1cc2cc(S(=O)(=O)c3ccc(C)cc3)c(=O)oc2cc1O,,inactive: -17.7%
COc1ccccc1C(=O)NC(CCSC)C(=O)OC(C)C(=O)NC1CC1 (centres undefined),,inactive: 6.4%
Nc1nc(NCc2ccco2)nc(Nc2ccccc2)c1[N+](=O)[O-],,inactive: 3.6%
CNS(=O)(=O)c1cccc(C(=O)OCC(=O)N2CCCC2)c1,"inconclusive [cytotoxic, single point]",
CCn1c(SC(C)C(=O)NC2CCCc3ccccc32)nnc1-c1cccs1 (centres undefined),,inconclusive: -7.75% [cytotoxic]
COC(=O)c1ccc(OCC2c3cc(OC)c(OC)cc3CCN2C(=O)c2ccco2)cc1 (centres undefined),"inconclusive [cytotoxic, single point]",
Cc1ccc(S(=O)(=O)Nc2ccccc2/C=N/c2nc3ccccc3n2C(C)C)cc1,active: 14.6 µM,
COc1ccc(OC)c2c1C(=O)C(Cl)=C(Cl)C2=O,active: 3.26 µM,
COc1cccc(C(=O)N/N=C/C(Br)=C/c2ccccc2)c1,active: 11.6 µM,
CCCNC(=O)C1(C)CCN(C(=O)c2sccc2C)C1 (centres undefined),"inconclusive [rising, partial curve]",
N#Cc1ccc(-c2nc3c(Cl)cc(C(F)(F)F)cn3c2Cc2ccccc2C(F)(F)F)cc1,"inconclusive [cytotoxic, single point]",
CCCCCCC(=O)Nc1ccc(C(=O)N/N=C/c2cccnc2)cc1,active: 8.2 µM,

SMILES,Potency,"activity, negative = toxicity"
CCOC(=O)C1CCN(c2ncnc3c2c(-c2ccccc2)cn3-c2ccccc2)CC1,,inactive: -22%
CCN(CC)Cc1c(O)ccc2c([N+](=O)[O-])c(C)n(-c3ccc(OC)cc3)c12,"inconclusive [cytotoxic, partial curve]",
CCSC1(SCC)N=C(N)C2(C#N)C(c3ccc(OC)c(OC)c3OC)C12C#N (centres undefined),"inconclusive [cytotoxic, single point]",
Cc1ccccc1OCC(=O)Nc1ccc(N2CCN(C(=O)C(C)C)CC2)c(Cl)c1,active: 13 µM,
OC(c1ccc(-c2ccccc2)cc1)c1ncc(-c2ccccc2F)[nH]1 (centres undefined),"inconclusive [cytotoxic, single point]",
CCC(=O)N(C1=C(NC)C(=O)c2ccccc2C1=O)C(C)C,active: 9.2 µM,
NC(=O)CC[C@H](NC(=O)c1ccc(F)cc1)C(=O)OCC(=O)Nc1ccc(N2CCOCC2)cc1,,inactive: 22.4%
CC(C)c1ccccc1NC(=O)Nc1nnc([C@@H]2C[C@H](O)[C@@H](CO)O2)s1,"inconclusive [rising, single point]",
Cc1cccc(NC(=O)c2nc[nH]c2C(=O)N[C@@H](Cc2ccccc2)C(=O)OC(C)(C)C)c1,"inconclusive [cytotoxic, single point]",
CN(CC(=O)Nc1ccc(Cl)c(C(F)(F)F)c1)C(=O)CCCNC(=O)c1ccc(Cl)cc1,"inconclusive [cytotoxic, single point]",
CCOc1cc(/C=N/N=C(\N)c2nonc2N)cc(Br)c1OCc1cccc2ccccc12,active: 18.4 µM,
Cc1cc(C(=O)N/N=C/c2cc(Br)ccc2OC(=O)c2ccccc2Cl)n[nH]1,active: 20.6 µM,
CN(Cc1ccccc1)c1ccc(C(CC(N)=O)NC(=O)c2ccccc2)cc1[N+](=O)[O-] (centres undefined),,inactive: -4.42%
COC(=O)c1ccc(N2CCOCC2)c(NC(=O)c2ccco2)c1,,inactive: 8.97%
CN1CCN(c2ccc(NC(=O)c3ccc(-c4cccc([N+](=O)[O-])c4)o3)cc2)CC1,"inconclusive [cytotoxic, single point]",
CCc1ccc(NC(=O)CSc2nc3n[nH]c(C)c3c(=N)n2-c2cccc(OC)c2)cc1,active: 11.2 µM,
COc1ccc(C2CC(c3ccc4ccccc4c3)=NN2C(=O)CN2CCC(C(N)=O)CC2)cc1 (centres undefined),"inconclusive [cytotoxic, single point]",
CCn1cc(C2=NCC(C)O2)c2ccccc21 (centres undefined),,inconclusive: 3.56%
CCOC(=O)CCCc1ccc(/C(C)=N/NC(N)=S)cc1,"inconclusive [cytotoxic, single point]",
Cc1ccc(C)c(Cn2nc(-c3cc(C)ccc3C)ccc2=O)c1,active: 18.4 µM,
COc1ccc(CCNc2ccncn2)cc1,,inactive: -4.62%
Cc1ccccc1OCC(O)CN(CCO)Cc1ccccc1 (centres undefined),"inconclusive [rising, partial curve]",
CC(C)c1ccc2oc(=O)cc(CN3CCOCC3)c2c1,,inactive: -6.05%
O=C(O)C1C2C=CC(C2)C1C(=O)NCc1ccc2c(c1)OCO2 (centres undefined),,inactive: 4.22%
S=C(Nc1ccccc1)Nc1ccc(Cl)cn1,,inactive: -21%

SMILES,Potency,"activity, negative = toxicity"
COC(=O)c1c(C)nc(C)c(C(=O)OC)c1-c1ccc(OC)c(OC)c1,,inactive: -4.16%
Cn1nnc2c[n+](CC(=O)c3ccc4ccccc4c3)cc(Br)c21,active: 20.6 µM,
OC(c1cc(Cl)cc(Cl)c1)c1ncc(-c2ccccc2C(F)(F)F)[nH]1 (centres undefined),"inconclusive [cytotoxic, single point]",
O=C(Nc1ccc2c(c1)OCCO2)C(C1CC1)N1CCC(Cc2ccccc2)CC1 (centres undefined),,inactive: -22%
Cc1ccc(-c2nc(CS(=O)(=O)CC(=O)NC3CCCCCC3)c(C)o2)cc1,,inactive: 14.8%
COc1ccc(OC)c(-c2c3cc(O)c(=O)cc-3oc3cc(O)c(O)cc23)c1,"inconclusive [cytotoxic, single point]",
CCc1nc2ccc(C(=O)NCCCn3ccnc3)cn2c1N(CC)Cc1cccc(Br)c1,"inconclusive [cytotoxic, single point]",
C=C1C(=O)[C@@]23[C@H](O)C[C@@H]4C(C)(C)CC[C@H](O)[C@@]4(C)[C@@H]2CC[C@@H]1[C@H]3O,active: 13 µM,
CCN(CC)c1ccc(/C=N/NC(=O)Cc2nnc(NC(=O)Nc3ccccc3)s2)cc1,active: 14.6 µM,
O=C1c2cccc3cccc(c23)C(=O)N1CCN1CCN(CC(O)COCc2ccc(Cl)cc2)CC1 (centres undefined),"inconclusive [cytotoxic, single point]",
O=C(O)c1cnn(-c2nc(-c3ccc(Cl)c(Cl)c3)cs2)c1C(F)(F)F,"inconclusive [cytotoxic, single point]",
COc1ccc(Br)cc1CNc1ccc(O)cc1,"inconclusive [cytotoxic, single point]",
CCOc1cccc(CN2CCC(n3nccc3NC(=O)CCCc3ccccc3)CC2)c1,"inconclusive [cytotoxic, single point]",
O=C1/C(=N\S(=O)(=O)c2cccs2)C([n+]2cccc(Cc3ccccc3)c2)=C([O-])c2ccccc21,active: 5.8 µM,
OC(c1ccc(F)cc1)c1nc(-c2ccncc2)cs1 (centres undefined),"inconclusive [cytotoxic, partial curve]",
CC(=O)c1ccc(Nc2cc(C)nc3ccc(C)cc23)cc1,"inconclusive [cytotoxic, partial curve]",
O=C(CSc1nnc(-c2ccccc2)n1Cc1ccco1)Nc1ccc(S(=O)(=O)N2CCCC2)cc1,active: 7.08 µM,
O=c1c2cc3c(cc2[nH]c(=S)n1C1CCN(Cc2ccccc2)CC1)OCO3,,inactive: 9.22%
Cc1ccccc1S(=O)(=O)NC(=O)C1(C)CCN1C(=O)CC1CCCC1 (centres undefined),"inconclusive [rising, single point]",
CC1Cc2ccccc2N1C(=O)CSc1nnc(-c2ccccc2)c(-c2ccccc2)n1 (centres undefined),,inactive: -8.73%
Cc1cccc(NC(=S)NNC(=O)c2ccccc2Br)c1,,inactive: -1.03%
Cc1ccc2nc(NC(=O)c3cccc(-c4cc5ccccc5oc4=O)c3)sc2c1,"inconclusive [cytotoxic, single point]",
O=C(N/N=C\c1cccnc1)C1c2ccccc2Oc2ccccc21,,inconclusive: -12.9% [cytotoxic]
Cc1ccc(NS(=O)(=O)c2ccc(NC(=O)c3cccc(NC(=O)C(C)C)c3)cc2)cc1,"inconclusive [cytotoxic, single point]",
